Results taken from the supplement of paper PMC8728848.
Some of the results follow.

Key:
Assay in all cases: glycan array binding signal (z-score within array); higher = stronger binding
Details in all cases: glycan notation: IUPAC condensed, linker removed
[1] = molecular target: GlcNAc(b1-4)GlcNAc(b1-4)GlcNAc(b1-4)GlcNAc(b1-4)GlcNAc(b1-4)GlcNAc
Outline: (§1)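 Glycan array data came from 3228 arrays in the Consortium for Functional Glycomics database, and only arrays with an available protein sequence were kept. Glycan names were put into IUPAC-condensed notation, and columns mapping to the same glycan were averaged. The binding signal is a within-array Z-score, averaged across arrays of one protein sequence run at different concentrations or buffers and across linkers. A negative Z-score can be read as non-binding.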

[2] = molecular target: GlcNAc(b1-4)[GlcNAc(b1-6)]GalNAc
Outline: as §1

[3] = molecular target: GlcNAc(b1-6)Gal(b1-4)GlcNAc
Outline: as §1

GlcNAc(b1-6)GalNAc = molecular target: GlcNAc(b1-6)GalNAc
Outline: as §1

[4] = molecular target: GlcNAc6S(b1-3)Gal(b1-4)GlcNAc
Outline: as §1

Kdn(a2-3)Gal(b1-3)GalNAc = molecular target: Kdn(a2-3)Gal(b1-3)GalNAc
Outline: as §1

Kdn(a2-3)Gal(b1-3)GlcNAc = molecular target: Kdn(a2-3)Gal(b1-3)GlcNAc
Outline: as §1

Kdn(a2-3)Gal(b1-4)Glc = molecular target: Kdn(a2-3)Gal(b1-4)Glc
Outline: as §1

Kdn(a2-3)Gal(b1-4)GlcNAc = molecular target: Kdn(a2-3)Gal(b1-4)GlcNAc
Outline: as §1

[5] = molecular target: Kdn(a2-3)Gal(b1-4)[Fuc(a1-3)]GlcNAc
Outline: as §1

Kdn(a2-6)Gal(b1-4)GlcNAc = molecular target: Kdn(a2-6)Gal(b1-4)GlcNAc
Outline: as §1

[6] = molecular target: Man(a1-2)Man(a1-2)Man(a1-3)Man
Outline: as §1

[7] = molecular target: Man(a1-2)Man(a1-2)Man(a1-6)[Man(a1-3)]Man
Outline: as §1

Man(a1-2)Man(a1-3)Man = molecular target: Man(a1-2)Man(a1-3)Man
Outline: as §1

[8] = molecular target: Man(a1-2)Man(a1-3)[Man(a1-2)Man(a1-6)]Man
Outline: as §1

[9] = molecular target: Man(a1-2)Man(a1-3)[Man(a1-2)Man(a1-6)]Man(a1-6)[Man(a1-2)Man(a1-2)Man(a1-3)]Man
Outline: as §1

[10] = molecular target: Man(a1-2)Man(a1-3)[Man(a1-2)Man(a1-6)]Man(a1-6)[Man(a1-2)Man(a1-2)Man(a1-3)]Man(b1-4)GlcNAc(b1-4)GlcNAc
Outline: as §1

[11] = molecular target: Man(a1-2)Man(a1-3)[Man(a1-6)]Man(a1-6)[Man(a1-2)Man(a1-3)]Man(b1-4)GlcNAc(b1-4)GlcNAc
Outline: as §1

[12] = molecular target: Man(a1-2)Man(a1-6)[Man(a1-3)]Man(a1-6)[Man(a1-2)Man(a1-2)Man(a1-3)]Man
Outline: as §1

[13] = molecular target: Man(a1-2)Man(a1-6)[Man(a1-3)]Man(a1-6)[Man(a1-2)Man(a1-2)Man(a1-3)]Man(b1-4)GlcNAc(b1-4)GlcNAc
Outline: as §1

Man(a1-3)[Man(a1-6)]Man = molecular target: Man(a1-3)[Man(a1-6)]Man
Outline: as §1

[14] = molecular target: Man(a1-3)[Man(a1-6)]Man(a1-6)[Man(a1-2)Man(a1-3)]Man(b1-4)GlcNAc(b1-4)GlcNAc
Outline: as §1

[15] = molecular target: Man(a1-3)[Man(a1-6)]Man(a1-6)[Man(a1-3)]Man
Outline: as §1

[16] = molecular target: Man(a1-3)[Man(a1-6)]Man(a1-6)[Man(a1-3)]Man(b1-4)GlcNAc(b1-4)GlcNAc
Outline: as §1

[17] = molecular target: Man(a1-3)[Man(a1-6)]Man(b1-4)GlcNAc(b1-4)GlcNAc
Outline: as §1

[18] = molecular target: Man(a1-3)[Man(a1-6)]Man(b1-4)GlcNAc(b1-4)[Fuc(a1-6)]GlcNAc
Outline: as §1

Man(a1-6)Man = molecular target: Man(a1-6)Man
Outline: as §1

Man(b1-4)GlcNAc = molecular target: Man(b1-4)GlcNAc
Outline: as §1

MurNAc(b1-4)GlcNAc = molecular target: MurNAc(b1-4)GlcNAc
Outline: as §1

Neu5Ac(a2-3)Gal = molecular target: Neu5Ac(a2-3)Gal
Outline: as §1

[19] = molecular target: Neu5Ac(a2-3)Gal(b1-3)GalNAc
Outline: as §1

[20] = molecular target: Neu5Ac(a2-3)Gal(b1-3)GalNAc(b1-3)Gal(a1-4)Gal(b1-4)Glc
Outline: as §1

[21] = molecular target: Neu5Ac(a2-3)Gal(b1-3)GalNAc(b1-4)[Neu5Ac(a2-3)]Gal(b1-4)Glc
Outline: as §1

[22] = molecular target: Neu5Ac(a2-3)Gal(b1-3)GalNAc(b1-4)[Neu5Ac(a2-8)Neu5Ac(a2-3)]Gal(b1-4)Glc
Outline: as §1

[23] = molecular target: Neu5Ac(a2-3)Gal(b1-3)GalNAc6S
Outline: as §1

[24] = molecular target: Neu5Ac(a2-3)Gal(b1-3)GlcNAc
Outline: as §1

[25] = molecular target: Neu5Ac(a2-3)Gal(b1-3)GlcNAc(b1-2)Man
Outline: as §1

[26] = molecular target: Neu5Ac(a2-3)Gal(b1-3)GlcNAc(b1-2)Man(a1-3)[GlcNAc(b1-4)][Neu5Ac(a2-3)Gal(b1-3)GlcNAc(b1-2)Man(a1-6)]Man(b1-4)GlcNAc(b1-4)GlcNAc
Outline: as §1

[27] = molecular target: Neu5Ac(a2-3)Gal(b1-3)GlcNAc(b1-2)Man(a1-3)[Neu5Ac(a2-3)Gal(b1-3)GlcNAc(b1-2)Man(a1-6)]Man(b1-4)GlcNAc(b1-4)GlcNAc
Outline: as §1

[28] = molecular target: Neu5Ac(a2-3)Gal(b1-3)GlcNAc(b1-2)[Neu5Ac(a2-3)Gal(b1-3)GlcNAc(b1-4)]Man(a1-6)[Neu5Ac(a2-3)Gal(b1-3)GlcNAc(b1-2)Man(a1-3)]Man(b1-4)GlcNAc(b1-4)GlcNAc
Outline: as §1

[29] = molecular target: Neu5Ac(a2-3)Gal(b1-3)GlcNAc(b1-3)Gal(b1-3)GlcNAc
Outline: as §1

[30] = molecular target: Neu5Ac(a2-3)Gal(b1-3)GlcNAc(b1-3)Gal(b1-4)GlcNAc
Outline: as §1

[31] = molecular target: Neu5Ac(a2-3)Gal(b1-3)GlcNAc(b1-3)GalNAc
Outline: as §1

[32] = molecular target: Neu5Ac(a2-3)Gal(b1-3)GlcNAc(b1-4)Gal(b1-4)Glc
Outline: as §1

[33] = molecular target: Neu5Ac(a2-3)Gal(b1-3)GlcNAc(b1-6)GalNAc
Outline: as §1

B1: rEtpA (Escherichia coli) (protein)
chain: MNRIYKLKFDKRRNELVVVSEITTGVGNAKATGSVEGEKSPRRGVRAMALSLLSGMMIMAHPAMSANLPTGGQIVAGSGSIQTPSGNQMNIHQNSQNMVANWNSFDIGKGNTVQFDQPSSSAVALNRVVGGGESQIMGNLKANGQVFLVNPNGVLFGEGASVSTSGFVASTRDIKNDDFMNRRYTFSGGQKAGAAIVNQGELTTNAGGYIVLAADRVSNSGTIRTPGGKTVLAASERITLQLDNGGLMSVQVTGDVVNALVENRGLVSARDGQVYLTALGRGMLMNTVLNVSGVVEASGMHRQDGNIVLDGGDSGVVHLSGTLQADNASGQGGKVVVQGKNILLDKGSNITATGGQGGGEVYVGGGWQGKDSNIRNADKVVMQGGARIDVSATQQGNGGTAVLWSDSYTNFHGQISAKGGETGGNGGRVETSSHGNLQAFGTVSASAKKGKAGNWLLDSADITIVNGSNVSKTETTQSPPHTQFAPTAAGSAVSNTSINNRLNNGTSVTILTHRTRTGTAQGGNITVNAAINKSNGSDVNLTLQAGGNITVNNSITSTEGKLNVNLSGARTSNGSITISNNANITTNGGDITVGTTNTSNRVNISINNTTLNASNGNIQLTGTGTDSGILFAGNNRLTASNIALTGNSTSGNAINLTGTATLNATNNITLTGSSTSGNAINLKGNNTLTASNITLTGESTSGNAINLTDTTGTTTLNATNNITMQGTRVQIKHSNITAGNFALNATVAGSEISNTTLTATNNINLAAKTNSASSGVYLKDARITSTNGSITANGTATANGKATHLDGNVTLNASNGRIKLTGNGHGSASGILFAGNNRLTASNIALTGNSTSGNAINLTGTATLNATNDITLTGSSTSGNAINLTGTATLNATNNITLTGSSTSGNAINLKGNNTLTASNITLTGESTSGNAINLTDTTGTTTLNATNNITMQGTRVQIKHSNITAGNFALNATVAGSEISNTTLTATNNINLAAKTNSASSGVYLKDARITSTNGSITANGTATANGKATHLDGNVTLNASNGRIKLTGNGHGSASGILFAGNNRLTASNIALTGNSTSGNAINLTGTATLNATNDITLTGSSTSGNAINLTGTATLNATNNITLTGSSTSGNAINLKGNNTLTASNITLTGESTSGNAINLTDTTGTTTLNATNNITMQGTRVQIKHSNITAGNFALNATVAGSEISNTTLTATNNINLAAKTNSASSGVYLKDARITSTNGSITANGTATANGKATHLDGNVTLNASNGRIKLTGNGHGSASGILFAGNNRLTASNIALTGNSTSGNAINLTGTATLNATNDITLTGSSTSGNAINLTGTATLNATNNITLTGSSTSGNAINLKGNNTLTASNITLTGESTSGNAINLTDTTGTTTLNATNNITMQGTRVQIKHSNITAGNFALNATVAGSEISNTTLTATNNINLAAKTNSASSGVYLKDARITSTNGSITTNGTATANGKATHLDGNVTLNASNGRIKLTGNGHGSASGILFAGNNRLTASNIALTGNSTSGNAINLTGTATLNATNDITLTGSSTSGNAINLTGTATLNATNNITLTGSSTSGNAINLKGNNTLTASNITLTGESTSGNAINLTDTTGTTTLNATNNITMQGTRVQIKHSNITAGNFALNATVAGSEISNTTLTATNNINLAAKTNSASSGVYLKDARITSTNGSITANGTAPANDNATYLDGNVTLNASNGSIKLTGNGNGSTSGILFAGNNTLTASNITLTGNSEVYWQKLGPEQKLISEEDLNSAVDHHHHHH
glycan array binding signal (z-score) [1]: -0.413 | glycan array binding signal (z-score) [2]: -0.087 | glycan array binding signal (z-score) [3]: -0.395 | glycan array binding signal (z-score) (GlcNAc(b1-6)GalNAc): 0.051 | glycan array binding signal (z-score) [4]: -0.312 | glycan array binding signal (z-score) (Kdn(a2-3)Gal(b1-3)GalNAc): -0.023 | glycan array binding signal (z-score) (Kdn(a2-3)Gal(b1-3)GlcNAc): 0.581 | glycan array binding signal (z-score) (Kdn(a2-3)Gal(b1-4)Glc): 0.314 | glycan array binding signal (z-score) (Kdn(a2-3)Gal(b1-4)GlcNAc): -0.304 | glycan array binding signal (z-score) [5]: -0.003 | glycan array binding signal (z-score) (Kdn(a2-6)Gal(b1-4)GlcNAc): 0.133 | glycan array binding signal (z-score) [6]: -0.195 | glycan array binding signal (z-score) [7]: -0.236 | glycan array binding signal (z-score) (Man(a1-2)Man(a1-3)Man): -0.211 | glycan array binding signal (z-score) [8]: -0.349 | glycan array binding signal (z-score) [9]: -0.058 | glycan array binding signal (z-score) [10]: -0.275 | glycan array binding signal (z-score) [11]: -0.356 | glycan array binding signal (z-score) [12]: -0.308 | glycan array binding signal (z-score) [13]: 0.009 | glycan array binding signal (z-score) (Man(a1-3)[Man(a1-6)]Man): -0.051 | glycan array binding signal (z-score) [14]: -0.315 | glycan array binding signal (z-score) [15]: -0.256 | glycan array binding signal (z-score) [16]: -0.391 | glycan array binding signal (z-score) [17]: -0.375 | glycan array binding signal (z-score) [18]: -0.03 | glycan array binding signal (z-score) (Man(a1-6)Man): 0.387 | glycan array binding signal (z-score) (Man(b1-4)GlcNAc): -0.119 | glycan array binding signal (z-score) (MurNAc(b1-4)GlcNAc): -0.313 | glycan array binding signal (z-score) (Neu5Ac(a2-3)Gal): -0.322 | glycan array binding signal (z-score) [19]: 0.894 | glycan array binding signal (z-score) [20]: -0.428 | glycan array binding signal (z-score) [21]: -0.371 | glycan array binding signal (z-score) [22]: 0.502 | glycan array binding signal (z-score) [23]: -0.179 | glycan array binding signal (z-score) [24]: -0.265 | glycan array binding signal (z-score) [25]: -0.259 | glycan array binding signal (z-score) [26]: -0.232 | glycan array binding signal (z-score) [27]: 0.384 | glycan array binding signal (z-score) [28]: -0.163 | glycan array binding signal (z-score) [29]: -0.489 | glycan array binding signal (z-score) [30]: -0.419 | glycan array binding signal (z-score) [31]: -0.3 | glycan array binding signal (z-score) [32]: -0.047 | glycan array binding signal (z-score) [33]: -0.402
